In PubChem BioAssay AID463173 (ICCB-Longwood Screening Facility, Harvard Medical School, 2010):
In all, about 52,000 compounds went through this assay and about 4,300 (8.3%) were called active. No stated cut-off is given here; in the data, active means survival mostly below about 52% (no sharp cut-off); inactive means mostly above about 56%. Some of the results follow.

What follows are compounds tested on DeltatarO mutant (assay: S. aureus survival, RN4220 and DeltatarO strains – OD600, teichoic acid synthesis inhibitors, primary screen (AID 463173)). Conditions: S. aureus RN4220 wild type/DeltatarO growth, OD600, 18 h, active compounds read low, screened at 18.75 µg/mL (by protocol).
With `Cc1ccc(CNC(=O)CN(c2ccc(C)cc2)S(=O)(=O)c2c(C)nn(C)c2C)cc1` the survival was inactive: 73%.
In the case of `CCN(CC)S(=O)(=O)c1ccc2c(c1)c(=O)c(C(=O)N1CCN(c3cccc(C)c3)C(C)C1)cn2C` (configuration not stated), the survival is reported as inactive: 78%.
`Cc1ccn2c(=O)c(C(=O)NC(C)c3ccccc3)c(O)nc2c1` (configuration not stated) was tested, and the survival was inactive: 65%.
For `COc1ccccc1N1CCN(C(=O)c2cc(-c3ccccc3O)on2)CC1`, the survival was inactive: 61%.
With `N#Cc1cccc(NC(=O)c2cc3c(s2)-c2ccc(Cl)cc2SC3)c1` the survival was inactive: 56%.
With `Cc1cccnc1NC(=O)c1c(O)c2cc(F)cc3c2n(c1=O)C(C)CC3` (configuration not stated) the survival was inactive: 104%.
For `COc1ccc(C2=C(Nc3ccc(C)c(C)c3)c3ccccc3C2=O)cc1`, the survival was inactive: 93%.
In the case of `O=C(CN(Cc1cccs1)C(=O)c1csnn1)NC1CCCC1`, the survival is reported as inactive: 62%.
For `CCc1ccccc1NC(=O)c1cc(S(=O)(=O)N2CCCc3ccccc32)ccc1F`, the survival was inactive: 91%.
With `Cc1c(C(=O)Nc2ccc(F)cc2)sc2nc[nH]c(=O)c12` the survival was inactive: 122%.
`CC(C)CCn1c(=O)c2sccc2n2c(CCCC(=O)NCc3ccc(F)cc3)nnc12` was tested, and the survival was inactive: 88%.
`O=C(Cn1c(=O)c2cccn2c2ccc(F)cc21)N1CCN(c2ccc(F)cc2)CC1` was tested, and the survival was inactive: 71%.
`Fc1cccc(-n2ncc3c2ncn2nc(-c4ccccc4Cl)nc32)c1` was tested, and the survival was inactive: 78%.
`CCOc1ccc(N(C)C(CNS(=O)(=O)c2ccccc2)c2ccccc2)cc1` (configuration not stated) was tested, and the survival was inactive: 87%.
For `O=C(COc1ccccc1)Nc1cccc(-c2cn3cccnc3n2)c1`, the survival was inactive: 81%.
For `Cc1cccc(N2CCN(C(=O)CCn3c(=O)c4cccn4c4cccnc43)CC2)c1C`, the survival was inactive: 59%.
`Cc1nc(SCC(=O)Nc2ccccc2F)[nH]c(=O)c1Cc1ccccc1` was tested, and the survival was inactive: 74%.
In the case of `O=S(=O)(c1ccccc1)c1nc(-c2cccs2)oc1SCc1ccc(F)cc1`, the survival is reported as inactive: 67%.
In the case of `COc1ccc(S(=O)(=O)c2cc(NS(=O)(=O)c3ccc(Cl)cc3)c(C)c(C)c2O)cc1`, the survival is reported as inactive: 70%.
For `COc1ccc(NC(=O)c2cnc[nH]2)cc1`, the survival was inactive: 138%.
For `CCc1nn(CC(=O)NCc2ccccc2Cl)c(=O)c2cccn12`, the survival was inactive: 63%.
`Cc1nc(-c2ccc(S(=O)(=O)Nc3ccc(C)c(N(C)C)c3)cc2)co1` was tested, and the survival was inactive: 83%.
With `CCC(=O)Nc1nc2cc(Cl)c(C)cc2s1` the survival was inactive: 69%.
With `COc1ccc(CCNC(=O)c2ccc3c(c2)N(Cc2ccc(F)cc2)CCS3)cc1OC` the survival was inactive: 96%.
In the case of `Cc1cc(C)cc(NC(=O)c2cccc3c2C(=O)N(C2CCCCC2)C3)c1`, the survival is reported as active: 33%.
`O=C(COc1ccccc1[N+](=O)[O-])Nc1ccc(-c2nc3ccccc3s2)cc1` was tested, and the survival was inactive: 63%.
In the case of `CCCN1C(=O)c2ccccc2NC1c1ccc(C)cc1` (configuration not stated), the survival is reported as inactive: 59%.
For `O=C(c1ccc(CSc2nc3ccncc3n2Cc2ccccc2)cc1)N1CCCCCC1`, the survival was inactive: 70%.
With `Cc1cccc2cc(CNCC3CCCO3)c(Cl)nc12` (configuration not stated) the survival was inactive: 79%.
For `Cc1ccc(Cl)cc1-n1ncc2c(Nc3cccc(C)c3C)ncnc21`, the survival was inactive: 82%.
With `Cc1ccc(-n2nc(C(=O)N3CCN(c4cc(Cl)ccc4C)CC3)c3c4ccccc4n(C)c3c2=O)cc1` the survival was inactive: 91%.
With `Cc1ccc(NC(=O)Cn2ccn(-c3ccc(F)c(F)c3)c(=O)c2=O)cc1C` the survival was inactive: 79%.
With `COc1ccccc1CCNS(=O)(=O)c1ccc(N2CCCCS2(=O)=O)cc1` the survival was inactive: 86%.
In the case of `COc1ccc(NC(=O)CCc2nnc3n(CC(C)C)c(=O)c4ccccc4n23)cc1`, the survival is reported as inactive: 84%.
With `COc1ccc(CNC(=O)c2ccc(CS(=O)Cc3ccccc3Cl)o2)cc1` (configuration not stated) the survival was inactive: 89%.
For `Cc1ccc(C2c3[nH]c4ccccc4c3CCN2C(=O)CCC2CCCC2)cc1` (configuration not stated), the survival was inactive: 80%.
In the case of `Cc1nc2ccn(Cc3ccco3)c(=O)c2cc1C(=O)N1CCN(c2ccccc2)CC1`, the survival is reported as inactive: 80%.
For `CCc1ccccc1NC(=O)C1CCCN(c2ncnc3onc(C)c23)C1` (configuration not stated), the survival was inactive: 78%.
`Cc1ccc2nc(-c3cccnc3)c(Nc3ccccc3C)n2c1` was tested, and the survival was inactive: 102%.
`Cc1cnc(C(=O)Nc2ccc(S(=O)(=O)NC(C)C)cc2)cn1` was tested, and the survival was inactive: 90%.
For `CCOc1ccc(S(=O)(=O)Nc2nc3ccccc3nc2Nc2ccc(OC)cc2)cc1`, the survival was inactive: 68%.
For `CCCNC(=O)CCSc1nc(-c2ccc3c(c2)OCO3)cc(C(F)(F)F)n1`, the survival was inactive: 68%.
In the case of `C=Cc1ccc(CSc2nc(-c3ccc(C)cc3)nc3c2Cc2c(CO)cnc(C)c2O3)cc1`, the survival is reported as inactive: 81%.
With `CC(C)c1ccc(OCC(=O)N(Cc2ccc(N(C)C)cc2)C2CCS(=O)(=O)C2)cc1` (configuration not stated) the survival was active: 43%.
For `O=C(Nc1cccc(C(=O)OCc2cc(=O)n3c4c(sc3n2)CCCC4)c1)c1ccccc1`, the survival was inactive: 102%.
In the case of `Cc1cccc(NC(=O)C(NS(=O)(=O)c2ccc3c(c2)oc(=O)n3C)C(C)C)c1` (configuration not stated), the survival is reported as inactive: 100%.
For `O=c1c(S(=O)(=O)c2cccc(Cl)c2)cn(Cc2ccccc2)c2cc(N3CCOCC3)c(F)cc12`, the survival was inactive: 83%.
For `COc1ccc2ncc3c(-c4ccc(C)c(C)c4)nn(CC(=O)NC4CCCC4)c3c2c1`, the survival was inactive: 101%.
For `COc1ccc(-c2nc3c(c(SCC(=O)N(C)c4ccccc4)n2)Cc2cc(C)ccc2O3)cc1`, the survival was inactive: 95%.
In the case of `CCCCNC(=O)C1CCC(CNS(=O)(=O)c2ccc(NC(C)=O)cc2)CC1` (configuration not stated), the survival is reported as inactive: 83%.
In the case of `CCN(CC)c1ccc(NC(=O)Cn2nc(C)n3cccc3c2=O)c(C)c1`, the survival is reported as inactive: 98%.
In the case of `CCCC(C)C(=O)Nc1ccc(OC)cc1` (configuration not stated), the survival is reported as inactive: 91%.
`COc1cc(CCC(=O)NCc2ccc3c(c2)CCN3C(=O)c2ccc(F)cc2)cc(OC)c1OC` was tested, and the survival was inactive: 85%.
With `Cc1ccc(-c2nnc(N(CC(C)C)C(=O)c3ccco3)s2)cc1` the survival was inactive: 78%.
For `CC1CCN(C(=O)CN(C)S(=O)(=O)c2ccc3ccccc3c2)CC1`, the survival was inactive: 103%.
With `CCOC(=O)c1c(SCC(=O)Nc2cc(Cl)cc(Cl)c2)nc(=O)[nH]c1C` the survival was inactive: 81%.
`CCC(=O)Nc1ccc(C(=O)CSc2nnc(-c3ccc(O)cc3)n2CC2CCCO2)cc1` (configuration not stated) was tested, and the survival was inactive: 55%.
